Here are results for three molecules from PubChem BioAssay (NCI).

Test systems include NCI-H23 lung; CCRF-CEM leukemia; LOX IMVI melanoma; U251 CNS; EKVX NSCLC; BT-549 breast; 786-0 renal; OVCAR-4 ovarian; HOP-62 NSCLC; HT29 colon; SNB-19 CNS; SN12C renal; TK-10 renal; T-47D breast; HCT-116 colon; K-562 leukemia; MCF7 breast; PC-3 prostate; SK-OV-3 ovarian; ACHN renal; CAKI-1 renal; SR leukemia; OVCAR-5 ovarian; SF-295 CNS.
What all share (assay): NCI-60 cell line screen, 48 h

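Exposure lasted 48 hours, with cells grown in 96-well plates and compounds tested at five concentrations. TGI: total growth inhibition.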 Not every entry of the source has a single result; some have several. This is not the full list of results. The source may hold further records. For some assays here: The tests behind the records often covered other concentration ranges, which the source does not state; some values may only mark the edge of a range. For some assays here: Values given together are repeats (runs, samples, wells, individuals or studies). A tag in brackets gives the origin of a value. Letters hold for one entry only.

Consider `N#Cc1nc2c(S(=O)(=O)c3ccc(Cl)cc3)c(N)n(Nc3cccc(Cl)c3)c2nc1C#N`, for which the TGI with NCI-H23 lung was 188 nM and > 100 µM; with CCRF-CEM leukemia, 166 nM and 13.4 nM; with LOX IMVI melanoma, 157 nM and > 100 µM; in the assay on U251 CNS, 104 nM and > 100 µM; in the assay with EKVX NSCLC it was 279 nM and > 100 µM; in the assay on BT-549 breast, 735 nM and 68.3 nM. Also, the TGI in the assay on 786-0 renal is 154 nM and 3.35 µM; in the assay on OVCAR-4 ovarian, 66.2 nM and > 100 µM; in the assay with HOP-62 NSCLC it was 245 nM and > 100 µM; in the assay on HT29 colon it was 139 nM and > 100 µM; in the assay on SNB-19 CNS, 310 nM and > 100 µM; in the assay on SN12C renal it was 204 nM and > 100 µM. In addition, the TGI was 95.7 nM and 81.6 µM in the assay on TK-10 renal; 466 nM and > 100 µM in the assay on T-47D breast; 125 nM and > 100 µM in the assay on HCT-116 colon; 200 nM and > 100 µM in the assay with K-562 leukemia; 192 nM and > 100 µM in the assay on MCF7 breast; 14.8 nM and > 100 µM in the assay with PC-3 prostate. In addition, the TGI with SK-OV-3 ovarian was 333 nM and > 100 µM; in the assay with ACHN renal it was 172 nM and > 100 µM; in the assay on CAKI-1 renal, 212 nM and > 100 µM.

`Cc1cc(O)c2c(c1)C(=O)C=CC2=O`: the TGI was 3.69 µM [sample A, mean of 2 tests] and > 100 µM [sample B, 1 test] in the assay with SR leukemia; 1.47 µM [sample A, 1 test] and > 100 µM [sample B, mean of 2 tests] in the assay on K-562 leukemia.

Turning to `N#CC(C(=O)C(=O)Nc1c(Cl)cccc1Cl)c1ccccc1` (stereo unspecified), the TGI in the assay with LOX IMVI melanoma is 1.41 µM and > 100 µM; in the assay with OVCAR-5 ovarian, 2.11 µM and > 100 µM; with SF-295 CNS it was 1.17 µM and > 100 µM.
